# T1: VEGF (UniProt P15692-4 27-191)
# T1 construct: Bought reagent; also called vascular endothelial growth factor
# T1 sequence (looked up): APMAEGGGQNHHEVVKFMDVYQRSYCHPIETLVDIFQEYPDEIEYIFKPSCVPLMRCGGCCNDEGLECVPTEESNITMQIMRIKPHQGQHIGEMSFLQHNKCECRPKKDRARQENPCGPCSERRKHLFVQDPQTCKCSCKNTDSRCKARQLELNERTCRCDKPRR
# T2: VEGF 1-165 aa (UniProt P15692 27-191)
# T2 construct: Bought antigen coated on the ELISA plate
# T2 sequence (looked up): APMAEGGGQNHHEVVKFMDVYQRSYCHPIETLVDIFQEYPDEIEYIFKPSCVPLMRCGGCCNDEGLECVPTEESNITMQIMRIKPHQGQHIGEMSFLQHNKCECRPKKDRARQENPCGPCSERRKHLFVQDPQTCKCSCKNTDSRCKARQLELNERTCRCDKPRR
# How the values were obtained:
# VEGF = biological target: T1, VEGF; test: BIACORE SPR
# VEGF 1-165 aa = biological target: T2, VEGF 1-165 aa; test: direct bind ELISA (C-term VD)
# HGF-His tag = biological target: T3, HGF-His tag (UniProt P14210 32-728); test: direct bind ELISA (N-term VD);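 further: ELISA screen of antibodies for binding to plate-immobilized target antigen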
# T3 construct: Bought antigen coated on the ELISA plate; not shown: His tag
# HGF-His tag, sequence (P14210 32-728 limits assumed): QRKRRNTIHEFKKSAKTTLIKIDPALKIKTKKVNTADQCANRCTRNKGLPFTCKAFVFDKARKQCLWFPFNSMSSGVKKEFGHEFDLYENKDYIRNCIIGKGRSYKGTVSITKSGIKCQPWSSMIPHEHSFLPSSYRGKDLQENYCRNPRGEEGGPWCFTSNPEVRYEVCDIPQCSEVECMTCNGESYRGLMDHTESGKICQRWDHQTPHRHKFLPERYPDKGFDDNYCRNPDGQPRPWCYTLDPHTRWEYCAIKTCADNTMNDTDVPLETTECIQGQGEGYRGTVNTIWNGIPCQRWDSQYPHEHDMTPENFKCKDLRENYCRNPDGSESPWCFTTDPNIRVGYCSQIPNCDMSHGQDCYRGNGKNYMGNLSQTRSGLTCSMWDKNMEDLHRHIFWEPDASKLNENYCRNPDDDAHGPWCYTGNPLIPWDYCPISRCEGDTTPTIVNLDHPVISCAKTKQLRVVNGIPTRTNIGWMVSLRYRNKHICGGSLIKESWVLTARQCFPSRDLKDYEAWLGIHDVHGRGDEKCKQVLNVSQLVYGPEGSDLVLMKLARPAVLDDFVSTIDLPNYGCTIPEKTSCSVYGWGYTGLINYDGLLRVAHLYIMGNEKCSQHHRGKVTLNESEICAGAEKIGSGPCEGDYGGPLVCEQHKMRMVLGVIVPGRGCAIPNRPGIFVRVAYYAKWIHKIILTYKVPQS
Kd (VEGF) [nM],koff (VEGF) [s⁻¹],kon (VEGF) [M⁻¹ s⁻¹],EC50 (VEGF 1-165 aa) [nM],EC50 (HGF-His tag) [nM],Binder
0.569,0.000303,533000,,,"DVD517 (bispecific antibody, human IgG1, kappa, lambda, DVD-Ig; N-term; AB073 (DLL4), C-term; AB014 (VEGF); HC linker long, LC linker long; also called DVD517H; DVD517L) heavy: EVQLQQSGPELEKPGASVKISCKASGYSFTGYNMNWVKQSNGKSLEWIGNIDPYFGGTNYNQKFKGKATLTVDKSSSTAYMQLKSLTSEDSAVYYCARNYDYDGGCFDYWGQGTTLTVSSASTKGPSVFPLAPEVQLVESGGGLVQPGGSLRLSCAASGYTFTNYGMNWVRQAPGKGLEWVGWINTYTGEPTYAADFKRRFTFSLDTSKSTAYLQMNSLRAEDTAVYYCAKYPHYYGSSHWYFDVWGQGTLVTVSS[omitted - human IgG1 constant region] light: QAVVTQESALTTSPGETVTLTCRSSTGAVTTSNYANWVQEKPDHLFTGLIGGTNNRAPGVPARFSGSLIGDKAALTITGAQTEDEAIYFCALWYSNHWVFGGGTKLTVLGQPKAAPSVTLFPPDIQMTQSPSSLSASVGDRVTITCSASQDISNYLNWYQQKPGKAPKVLIYFTSSLHSGVPSRFSGSGSGTDFTLTISSLQPEDFATYYCQQYSTVPWTFGQGTKVEIKRTVAAPSVFIFPPSDEQLKSGTASVVCLLNNFYPREAKVQWKVDNALQSGNSQESVTEQDSKDSTYSLSSTLTLSKADYEKHKVYACEVTHQGLSSPVTKSFNRGEC"
0.332,0.000186,561000,,,"DVD529 (bispecific antibody, human IgG1, kappa, lambda, DVD-Ig; N-term; AB073 (DLL4), C-term; AB014 (VEGF); HC linker short, LC linker long; also called DVD529H; DVD529L) heavy: EVQLQQSGPELEKPGASVKISCKASGYSFTGYNMNWVKQSNGKSLEWIGNIDPYFGGTNYNQKFKGKATLTVDKSSSTAYMQLKSLTSEDSAVYYCARNYDYDGGCFDYWGQGTTLTVSSASTKGPEVQLVESGGGLVQPGGSLRLSCAASGYTFTNYGMNWVRQAPGKGLEWVGWINTYTGEPTYAADFKRRFTFSLDTSKSTAYLQMNSLRAEDTAVYYCAKYPHYYGSSHWYFDVWGQGTLVTVSS[omitted - human IgG1 constant region] light: QAVVTQESALTTSPGETVTLTCRSSTGAVTTSNYANWVQEKPDHLFTGLIGGTNNRAPGVPARFSGSLIGDKAALTITGAQTEDEAIYFCALWYSNHWVFGGGTKLTVLGQPKAAPSVTLFPPDIQMTQSPSSLSASVGDRVTITCSASQDISNYLNWYQQKPGKAPKVLIYFTSSLHSGVPSRFSGSGSGTDFTLTISSLQPEDFATYYCQQYSTVPWTFGQGTKVEIKRTVAAPSVFIFPPSDEQLKSGTASVVCLLNNFYPREAKVQWKVDNALQSGNSQESVTEQDSKDSTYSLSSTLTLSKADYEKHKVYACEVTHQGLSSPVTKSFNRGEC"
0.305,0.000175,573000,,,"DVD523 (bispecific antibody, human IgG1, kappa, DVD-Ig; N-term; AB073 (DLL4), C-term; AB014 (VEGF); HC linker long, LC linker short; also called DVD523H; DVD523L) heavy: EVQLQQSGPELEKPGASVKISCKASGYSFTGYNMNWVKQSNGKSLEWIGNIDPYFGGTNYNQKFKGKATLTVDKSSSTAYMQLKSLTSEDSAVYYCARNYDYDGGCFDYWGQGTTLTVSSASTKGPSVFPLAPEVQLVESGGGLVQPGGSLRLSCAASGYTFTNYGMNWVRQAPGKGLEWVGWINTYTGEPTYAADFKRRFTFSLDTSKSTAYLQMNSLRAEDTAVYYCAKYPHYYGSSHWYFDVWGQGTLVTVSS[omitted - human IgG1 constant region] light: QAVVTQESALTTSPGETVTLTCRSSTGAVTTSNYANWVQEKPDHLFTGLIGGTNNRAPGVPARFSGSLIGDKAALTITGAQTEDEAIYFCALWYSNHWVFGGGTKLTVLGQPKAAPDIQMTQSPSSLSASVGDRVTITCSASQDISNYLNWYQQKPGKAPKVLIYFTSSLHSGVPSRFSGSGSGTDFTLTISSLQPEDFATYYCQQYSTVPWTFGQGTKVEIKRTVAAPSVFIFPPSDEQLKSGTASVVCLLNNFYPREAKVQWKVDNALQSGNSQESVTEQDSKDSTYSLSSTLTLSKADYEKHKVYACEVTHQGLSSPVTKSFNRGEC"
,,,41.5,0.47,"DVD641 (bispecific antibody, human IgG1, kappa, DVD-Ig; HC linker long, LC linker long; vectors V1/V2) heavy: QVQLVESGGGLVKPGGSLRLSCAASGFTFSDYYMSWIRQAPGKGLEWVSYISSSGSTIYYADSVKGRFTISRDNAKNSLYLQMNSLRAEDTAVYYCARDEYNSGWYVLFDYWGQGTLVTVSSASTKGPSVFPLAPEVQLVESGGGLVQPGGSLRLSCAASGYTFTNYGMNWVRQAPGKGLEWVGWINTYTGEPTYAADFKRRFTFSLDTSKSTAYLQMNSLRAEDTAVYYCAKYPHYYGSSHWYFDVWGQGTLVTVSS[omitted - human IgG1 constant region] light: DIQMTQSPSSVSASVGDRVTITCRASQGISSWLAWYQQKPGKAPNLLIYEASSLQSGVPSRFGGSGSGTDFTLTISSLQPEDFATYYCQQANGFPWTFGQGTKVEIKRTVAAPSVFIFPPDIQMTQSPSSLSASVGDRVTITCSASQDISNYLNWYQQKPGKAPKVLIYFTSSLHSGVPSRFSGSGSGTDFTLTISSLQPEDFATYYCQQYSTVPWTFGQGTKVEIKRTVAAPSVFIFPPSDEQLKSGTASVVCLLNNFYPREAKVQWKVDNALQSGNSQESVTEQDSKDSTYSLSSTLTLSKADYEKHKVYACEVTHQGLSSPVTKSFNRGEC"
,,,25.4,0.15,"DVD647 (bispecific antibody, human IgG1, kappa, DVD-Ig; HC linker long, LC linker short; vectors V1/V2) heavy: QVQLVESGGGLVKPGGSLRLSCAASGFTFSDYYMSWIRQAPGKGLEWVSYISSSGSTIYYADSVKGRFTISRDNAKNSLYLQMNSLRAEDTAVYYCARDEYNSGWYVLFDYWGQGTLVTVSSASTKGPSVFPLAPEVQLVESGGGLVQPGGSLRLSCAASGYTFTNYGMNWVRQAPGKGLEWVGWINTYTGEPTYAADFKRRFTFSLDTSKSTAYLQMNSLRAEDTAVYYCAKYPHYYGSSHWYFDVWGQGTLVTVSS[omitted - human IgG1 constant region] light: DIQMTQSPSSVSASVGDRVTITCRASQGISSWLAWYQQKPGKAPNLLIYEASSLQSGVPSRFGGSGSGTDFTLTISSLQPEDFATYYCQQANGFPWTFGQGTKVEIKRTVAAPDIQMTQSPSSLSASVGDRVTITCSASQDISNYLNWYQQKPGKAPKVLIYFTSSLHSGVPSRFSGSGSGTDFTLTISSLQPEDFATYYCQQYSTVPWTFGQGTKVEIKRTVAAPSVFIFPPSDEQLKSGTASVVCLLNNFYPREAKVQWKVDNALQSGNSQESVTEQDSKDSTYSLSSTLTLSKADYEKHKVYACEVTHQGLSSPVTKSFNRGEC"
,,,16.8,0.24,"DVD653 (bispecific antibody, human IgG1, kappa, DVD-Ig; HC linker short, LC linker long; vectors V1/V2) heavy: QVQLVESGGGLVKPGGSLRLSCAASGFTFSDYYMSWIRQAPGKGLEWVSYISSSGSTIYYADSVKGRFTISRDNAKNSLYLQMNSLRAEDTAVYYCARDEYNSGWYVLFDYWGQGTLVTVSSASTKGPEVQLVESGGGLVQPGGSLRLSCAASGYTFTNYGMNWVRQAPGKGLEWVGWINTYTGEPTYAADFKRRFTFSLDTSKSTAYLQMNSLRAEDTAVYYCAKYPHYYGSSHWYFDVWGQGTLVTVSS[omitted - human IgG1 constant region] light: DIQMTQSPSSVSASVGDRVTITCRASQGISSWLAWYQQKPGKAPNLLIYEASSLQSGVPSRFGGSGSGTDFTLTISSLQPEDFATYYCQQANGFPWTFGQGTKVEIKRTVAAPSVFIFPPDIQMTQSPSSLSASVGDRVTITCSASQDISNYLNWYQQKPGKAPKVLIYFTSSLHSGVPSRFSGSGSGTDFTLTISSLQPEDFATYYCQQYSTVPWTFGQGTKVEIKRTVAAPSVFIFPPSDEQLKSGTASVVCLLNNFYPREAKVQWKVDNALQSGNSQESVTEQDSKDSTYSLSSTLTLSKADYEKHKVYACEVTHQGLSSPVTKSFNRGEC"
